# Data: the supplement of paper PMC4996465
# Where a name gives a salt, the structure may show the parent alone. Viability of KB3-1 and Nalm-6 cells after 48 h of drug alone (CellTiter-Glo), 11 doses over about 4.5 log units. % of DMSO wells, lower = more cell loss; AC50 from the fitted curve, lower = more potent. No active / inactive call. Nalm-6 was screened in two runs. AC50 is listed only for well-fitted inhibitory curves. KB3-1 is a HeLa-derived carcinoma line, Nalm-6 a B-cell precursor leukaemia line.
# Columns and labels:
# KB3-1 = assay: viability (% of DMSO control); higher = more viable cells
# Experimental: (§1)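 Eleven-dose screen of the NCATS MIPE 3 library on cells without co-treatment; CellTiter-Glo after 48 h, as % of DMSO wells.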
# Nalm-6 = assay: as above
# Experimental: as §1
Structure (SMILES),viability (KB3-1; 0.00078 µM),viability (KB3-1; 0.00234 µM),viability (KB3-1; 0.00702 µM),viability (KB3-1; 0.0211 µM),viability (KB3-1; 0.0632 µM),viability (KB3-1; 0.19 µM),viability (KB3-1; 0.569 µM),viability (KB3-1; 1.71 µM),viability (KB3-1; 5.12 µM),viability (KB3-1; 15.4 µM),viability (KB3-1; 46.1 µM),"viability (Nalm-6; run: 1, 0.00078 µM)","viability (Nalm-6; run: 1, 0.00234 µM)","viability (Nalm-6; run: 1, 0.00702 µM)","viability (Nalm-6; run: 1, 0.0211 µM)","viability (Nalm-6; run: 1, 0.0632 µM)","viability (Nalm-6; run: 1, 0.19 µM)","viability (Nalm-6; run: 1, 0.569 µM)","viability (Nalm-6; run: 1, 1.71 µM)","viability (Nalm-6; run: 1, 5.12 µM)","viability (Nalm-6; run: 1, 15.4 µM)","viability (Nalm-6; run: 1, 46.1 µM)","viability (Nalm-6; run: 2, 0.00078 µM)","viability (Nalm-6; run: 2, 0.00234 µM)","viability (Nalm-6; run: 2, 0.00702 µM)","viability (Nalm-6; run: 2, 0.0211 µM)","viability (Nalm-6; run: 2, 0.0632 µM)","viability (Nalm-6; run: 2, 0.19 µM)","viability (Nalm-6; run: 2, 0.569 µM)","viability (Nalm-6; run: 2, 1.71 µM)","viability (Nalm-6; run: 2, 5.12 µM)","viability (Nalm-6; run: 2, 15.4 µM)","viability (Nalm-6; run: 2, 46.1 µM)"
CNC(=O)c1cc(COc2nnc(Nc3ccc(Cl)cc3)c3ccoc23)ccn1 [Telatinib],100%,101%,103%,102%,100%,102%,101%,104%,102%,105%,67.8%,97.9%,103%,107%,108%,99.4%,118%,110%,118%,95.6%,115%,35.4%,103%,111%,111%,107%,101%,113%,106%,106%,104%,102%,8.59%
CS(=O)(=O)Oc1ccc2c(NC(N)=O)c(C(=O)c3ccc(Cl)cc3Cl)oc2c1 [Lirimilast],100%,99.7%,107%,104%,108%,103%,108%,102%,103%,105%,93%,86.6%,102%,110%,109%,101%,104%,110%,115%,115%,115%,78.8%,106%,108%,115%,115%,105%,112%,111%,108%,109%,108%,98.1%
Nc1nccc(-c2ccc3noc(-c4ccc(Cl)cc4)c3c2)n1 [Pim 1 inhibitor 2],106%,102%,103%,103%,109%,110%,109%,106%,105%,107%,76.2%,103%,107%,101%,112%,118%,115%,128%,123%,111%,115%,80.3%,109%,106%,109%,112%,109%,110%,114%,105%,110%,112%,63.4%
CCc1ccc(CCOc2ccc(CC3SC(=O)NC3=O)cc2)nc1 (centres undefined) [Pioglitazone HCl],97.3%,94.2%,105%,94.7%,104%,101%,98.9%,88%,105%,103%,6.87%,101%,94.3%,100%,103%,110%,107%,107%,106%,93.2%,100%,46.3%,102%,104%,100%,96.1%,111%,100%,107%,98.6%,103%,100%,77.7%
O=C(/C=C/c1ccc(/C=C/C(=O)Nc2ccc(C3=NCCN3)cc2)cc1)Nc1ccc(C2=NCCN2)cc1 [GW 4869],107%,110%,107%,113%,111%,107%,107%,106%,103%,103%,107%,123%,119%,128%,113%,127%,120%,128%,125%,119%,109%,112%,112%,114%,111%,110%,114%,111%,51.2%,111%,108%,93.7%,107%
Cc1cccc(-c2[nH]c(C(C)(C)C)nc2-c2ccc3nccnc3c2)n1,102%,102%,102%,99.8%,107%,109%,103%,102%,98.5%,100%,81.7%,104%,106%,106%,112%,116%,108%,111%,110%,116%,115%,85.7%,110%,110%,101%,106%,111%,107%,106%,116%,109%,115%,101%
Oc1nc(-c2ccc(C(F)(F)F)cc2)nc2c1CSCC2 [NVP-XAV-939],93.7%,97%,95.3%,92.2%,98.9%,100%,93.5%,93.5%,97.8%,96.1%,86.9%,92.9%,96.4%,95.4%,92.8%,105%,106%,102%,108%,93.9%,102%,83.8%,107%,103%,107%,109%,98.7%,107%,99.7%,100%,99.9%,109%,85.8%
O=C(/C=C/c1c(C(=O)[O-])[nH]c2cc(Cl)cc(Cl)c12)Nc1ccccc1 [Gavestinel sodium],88.3%,90.6%,93.8%,90.8%,93%,91.6%,96%,95%,97.4%,95.2%,89%,64.2%,80.9%,91.4%,96.1%,84.5%,95%,109%,97.7%,100%,100%,112%,102%,104%,103%,105%,109%,104%,104%,100%,106%,114%,109%
